Article PMC4336329 (PLoS ONE, 2015)
About 14,000 (4.5%) of roughly 310,000 compounds showed an effect of 50% or more. Effects have a minus sign here. Some of the results follow.

biological target: human ether-à-go-go-related gene (hERG) potassium channel (human, UniProt Q12809); assay: primary screen, population patch clamp on CHO cells stably expressing hERG
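Also: peak tail current of the secondary pulse compared with the same well before compound.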

Chain of human ether-à-go-go-related gene (hERG) potassium channel (Q12809 whole entry, looked up): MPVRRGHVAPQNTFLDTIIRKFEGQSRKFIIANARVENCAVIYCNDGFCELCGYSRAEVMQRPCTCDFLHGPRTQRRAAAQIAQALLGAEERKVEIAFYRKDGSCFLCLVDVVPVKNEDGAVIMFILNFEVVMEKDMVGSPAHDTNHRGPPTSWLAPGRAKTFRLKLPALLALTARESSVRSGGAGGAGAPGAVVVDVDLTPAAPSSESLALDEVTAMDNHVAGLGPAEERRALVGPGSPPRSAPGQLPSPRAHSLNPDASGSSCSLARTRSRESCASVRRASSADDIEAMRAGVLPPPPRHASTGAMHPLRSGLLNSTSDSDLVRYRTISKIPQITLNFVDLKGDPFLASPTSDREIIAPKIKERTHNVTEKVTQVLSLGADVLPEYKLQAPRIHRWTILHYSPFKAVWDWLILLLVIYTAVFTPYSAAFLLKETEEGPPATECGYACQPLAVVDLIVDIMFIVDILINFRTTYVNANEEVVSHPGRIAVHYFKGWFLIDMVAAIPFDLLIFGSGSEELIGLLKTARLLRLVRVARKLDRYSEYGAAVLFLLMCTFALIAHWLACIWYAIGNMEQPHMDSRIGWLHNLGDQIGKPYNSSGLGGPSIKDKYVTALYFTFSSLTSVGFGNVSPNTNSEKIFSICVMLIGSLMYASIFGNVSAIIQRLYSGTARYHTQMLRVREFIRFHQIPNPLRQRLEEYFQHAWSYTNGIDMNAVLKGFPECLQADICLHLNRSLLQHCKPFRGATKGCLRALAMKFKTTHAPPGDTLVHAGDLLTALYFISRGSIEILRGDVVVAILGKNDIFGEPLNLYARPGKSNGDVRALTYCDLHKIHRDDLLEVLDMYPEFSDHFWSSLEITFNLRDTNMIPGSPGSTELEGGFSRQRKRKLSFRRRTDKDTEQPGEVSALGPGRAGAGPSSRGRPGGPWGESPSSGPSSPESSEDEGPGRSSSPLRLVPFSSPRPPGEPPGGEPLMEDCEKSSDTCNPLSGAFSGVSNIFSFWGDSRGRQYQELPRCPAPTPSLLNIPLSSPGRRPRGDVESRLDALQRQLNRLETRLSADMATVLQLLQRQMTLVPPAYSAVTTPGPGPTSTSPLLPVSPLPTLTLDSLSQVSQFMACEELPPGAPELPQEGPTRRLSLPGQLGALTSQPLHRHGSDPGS

SMILES	hERG current change (%, negative = inhibition) at 10uM [%]
CCN1C(=O)CSc2ccc(C(=O)NC3CCCCC3)cc21	-5.4
COCCOc1cc(-n2ccnc2SC)c(Cl)cc1Cl	-12
O=C(COC(=O)C1CCN(c2ccc(C(F)(F)F)cn2)CC1)Nc1cccc(F)c1	17.4
Cc1cc(C)cc(NC(=O)c2oc3ccccc3c2COc2ccccc2)c1	1.36
Cc1cc(C)n2nc(-c3sccc3-n3c(C)ccc3C)cc2n1	17.3
O/N=C/c1cc2ccccc2n1Cc1ccccc1F	13.6
CCn1c(C)c(C(C)=O)c(N2CCN(c3cccc(Cl)c3)CC2)nc1=S	-27.6
Cc1noc(C)c1S(=O)(=O)N(CC(=O)N1CCn2c1nc1ccccc12)c1ccc(C(C)C)cc1	-14.9
COCCOC(=O)c1c(NC(=O)CNc2ccc(C)c(F)c2)sc(C(N)=O)c1C	3.31
CCOC(=O)N1CCN(C(=O)COC(=O)c2ccc(S(=O)(=O)N(CC)CC)cc2)CC1	-18.9
CN(CC(=O)Nc1cccc(F)c1)C(=O)CCc1nc2cc(S(=O)(=O)N3CCOCC3)ccc2n1C	-9.01
CCn1cc(S(=O)(=O)c2ccc(OC)cc2)c(=O)c2cc(F)c(N3CCN(C)CC3)cc21	-17.5
Cc1cc(C)cc(C(=O)OCC(=O)Nc2ncccn2)c1	-0.75
CC(C)OP(=O)(OC(C)C)C(Nc1ccccc1)c1cccc2c1OCO2 (centres unmarked)	-27.9
COc1cc(NC(=O)CCc2ccccc2)nc(OC)n1	-17.8
NC(=O)c1cccnc1Oc1ccc(Cl)cc1Cl	-16.1
O=Cc1cn(Cc2ccccc2F)c2ccccc12	6.19
CC1CCN(C(=O)CSc2nnc(-c3ccco3)o2)CC1	-17.4
CC(=O)c1ccc(C(=O)Nc2ccc(N3CCOCC3)cc2)cc1	13.1
Cc1nn(CC(=O)N2CCN(Cc3ccccc3)CC2)c(=O)c2ccccc12	-2.85
Cc1ccc(C)c(SCC(=O)Nc2ccc(S(=O)(=O)Nc3ncccn3)cc2)c1	15.5
CCN(CC)CCCn1c(=S)[nH]c2ncccc2c1=O	-15.9

SMILES	hERG current change (%, negative = inhibition) at 10uM [%]
CC(C)(C)N1C(=O)[C@H]2[C@@H](c3ccc(Br)cc3)N3C(=O)N(c4cccc(Cl)c4)C(=O)[C@@]3(C)[C@H]2C1=O	2.53
O=C(CSc1nnc(Cc2cccs2)n1-c1ccc(Cl)cc1)NCc1ccc2c(c1)OCO2	-34.5
COc1ccc(COC(=O)c2ccc(S(=O)(=O)N3CCC(C)CC3)cc2)cc1	16.5
Cc1nc2ccccc2c(=O)n1NCc1cc(Br)cs1	-8.7
O=S(Cc1ccc(Cl)cc1)CC(O)COc1ccc(Cl)cc1 (centres unmarked)	0.213
Nc1nc(-c2ccc(Cl)cc2)nn1C(=O)c1ccco1	23.3
CNC(=O)NC(=O)C(OC(=O)CCNS(=O)(=O)c1ccccc1)c1ccccc1 (centres unmarked)	9.53
O=C(CSc1nc(-c2ccc(F)cc2)nc2ccc(F)cc12)Nc1cccc(C(=O)O)c1	17
CC(C)C(=O)N1CCN(c2nc(-c3ccc(Cl)cc3)cs2)CC1	-82.5
N#Cc1c(-c2ccccc2)nc(SCC(=O)NC2CCCCC2)[nH]c1=O	31
O=C(Nc1cccc(Cl)c1N1CCOCC1)c1ccco1	-8.08
CC(C)Cc1nc2sc3c(=O)[nH]cnc3c2c2c1CCCC2	15.8
Cc1ccc(S(=O)(=O)N2CCOCC2)cc1C(=O)N1CCCC1	19.6
CC1(C)CC(=S)Nc2ccccc2S1	3.69
COc1ccc(N(C(=O)c2ccco2)C(C(=O)NC2CCCC2)c2ccncc2)cc1 (centres unmarked)	-18.4
CC(=O)N1CCOc2ccc(S(=O)(=O)NCc3ccc(F)cc3)cc21	-16.6
O=C(Nc1ccc(C(=O)N2CCOCC2)cc1)Nc1cccc(C(F)(F)F)c1	1.55
COC(=O)c1ccsc1NC(=O)CN1CCN(Cc2ccc3c(c2)OCO3)CC1	-78.4
O=C(O)CCC(=O)Nc1ccccc1Oc1ccccc1	11.6
CC1CCCN(c2nc3ccccc3nc2C(C#N)S(=O)(=O)c2ccccc2)C1 (centres unmarked)	7.12
O=C(C1CCCCC1)N1CCC(c2nc3ccccc3[nH]2)CC1	-5.51
C=CCN(C(=O)c1csnn1)C(C(=O)NCc1ccc(F)cc1)c1cccs1 (centres unmarked)	1.15
